From the RNAGym collection of RNA variant scans (doi:10.1101/gad.245936.114) come the findings set out here.

The labels stand for the following.
B1: tRNA (parent)
chain: CUCUCGGUAGCCAAGUUGGUUUAAGGCGCAAGACUUUAAUUUAUCACUACGAAAUCUUGAGAUCGGGCGUUCGACUCGCCCCCGGGAGAUUUUUUCCUCGAGCAA

Variants at the floor of the assay are shown more often than the library holds them.

Variants of B1 are the subject of the series. The series is described as follows: nonsense suppression (GFP-seq) (ratio to wild type); higher = more function; SUP4oc tRNA, yeast GFP reporter sort-seq. The essentials:
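To measure nonsense suppression, tRNA variants from a library carrying ~3% random mutations were integrated into the yeast genome alongside RFP and a GFP ochre reporter under galactose control. Growth took place in raffinose/galactose medium supplemented with 80 mg/L adenine, followed by sorting into GFP/RFP bins and Illumina sequencing of each bin (phred ≥30). For each variant with ≥100 reads and ≥30 cells, the bin median GFP/RFP values were weighted by its estimated cell share per bin and referenced to the unmutated parent tRNA.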
Regarding A23G A62C C81G, the nonsense suppression is not above 0.026.
Turning to C64A C72U A87G, the nonsense suppression is not above 0.026.
For the variant U4G A23U, the nonsense suppression was not above 0.026.
Take C29G U63C A89C: the nonsense suppression is not above 0.026.
A9U A24C U58G A62C G85U G88A: the nonsense suppression was not above 0.026.
For the variant A31C U63A U70C, the nonsense suppression is not above 0.026.
In the case of U57A C82U, the nonsense suppression is not above 0.026.
To A13C G61C G88A belongs not above 0.026.
Consider U4A G86U, for which the nonsense suppression was not above 0.026.
As to A13G C77A, the nonsense suppression is not above 0.026.
The same measure for U2G U8G A24C G28A A31G G32C C75G: not above 0.026; for U8A U21A G32C: not above 0.026; for C1A U17G U20G: not above 0.026.
To U21G G61C belongs 0.105; to G6C G7U, not above 0.026; to C5G A23U A30U G32U, not above 0.026.
With U20G G69C U70C G86U, the nonsense suppression is not above 0.026.
Regarding A13G C64G G84A A87G, the nonsense suppression is not above 0.026.
The same measure for U20A A33C C81G: not above 0.026; for U2G A30U: not above 0.026; for G10A G78U: 0.0324.
As for U20C U22C, the nonsense suppression was determined as 0.814.
The same measure for C1A C56A G73C: not above 0.026; for A14G G28A G59U: not above 0.026; for U8A A9G C11U A30G U58G U71C: not above 0.026.
The same measure for U8A C27G G65C A74G: not above 0.026; for C3U U22C A24G: not above 0.026.
To C29A U63G belongs not above 0.026; to C12G U21G U22G, not above 0.026; to U4A U20G G32C, not above 0.026.
As for U17C C27A C68G A87C, the nonsense suppression was not above 0.026.
The same measure for U76G C80G: not above 0.026.
The same measure for A54C U58G A74U U76C: not above 0.026; for A33C G73A: not above 0.026; for G19C C34A U57C: not above 0.026.
In the case of A14C G59C G85A, the nonsense suppression was not above 0.026.
For U4C C64G, the nonsense suppression was not above 0.026.
For A13C G67A, the nonsense suppression stood at 0.0799.
In the case of U17C C72A, the nonsense suppression was not above 0.026.
Take U8C U58A: the nonsense suppression is not above 0.026.
A13U U70C G84C: the nonsense suppression is not above 0.026.
In the case of A24G A62U G67A U76G, the nonsense suppression was not above 0.026.
Consider G19U U21G A54U U70G, for which the nonsense suppression is not above 0.026.
To G32U G59U G67C G69U belongs not above 0.026.
For the variant G6C U22G A33U, the nonsense suppression is not above 0.026.
The same measure for U20G A62U G69C: not above 0.026.
Turning to U20C A60G, the nonsense suppression worked out at 0.0437.
In the case of U21C U70C, the nonsense suppression is not above 0.026.
Consider G65C G78A C83A G85A, for which the nonsense suppression was not above 0.026.
On to C3U C80G, for which the nonsense suppression is not above 0.026.
Consider U17C A62G U70C, for which the nonsense suppression is not above 0.026.
The same measure for G26A C29G A30G A33G: not above 0.026; for U2G C12U G15C: not above 0.026.
As to U2A U16A A24U A30C, the nonsense suppression was not above 0.026.
Regarding A13C U17G C29U A30C U76A, the nonsense suppression is not above 0.026.
In the case of C27A C56G, the nonsense suppression was not above 0.026.
As for U35G A60C G66A C79U, the nonsense suppression was not above 0.026.
In the case of U17G A60C C81A A87U, the nonsense suppression was not above 0.026.
Consider A31G G73C, for which the nonsense suppression was not above 0.026.
In the case of C12G U57G A74U C79A, the nonsense suppression is not above 0.026.
The same measure for C3U A24C G26C: not above 0.026; for G28U U58A U70A: not above 0.026.
For A30G C77A G78C, the nonsense suppression is not above 0.026.
For the variant U2C C29A C56A A60U, the nonsense suppression was not above 0.026.
Regarding A33G C34U U71A, the nonsense suppression was not above 0.026.
Consider U58G A60C A62U, for which the nonsense suppression was not above 0.026.
The same measure for C11A A89G: not above 0.026; for G26C: not above 0.026; for U8A C11U U21C: not above 0.026.
Regarding U58C C82U, the nonsense suppression is not above 0.026.
For C77G G85A, the nonsense suppression was not above 0.026.
To G7U U17G A24G U76C belongs not above 0.026.
For the variant U22A G25C, the nonsense suppression was not above 0.026.
Regarding A23U A30C A60U G88C, the nonsense suppression was not above 0.026.
In the case of C11U G18U U58G, the nonsense suppression was not above 0.026.
Take C3G U63G: the nonsense suppression is not above 0.026.
Turning to C5A A23C G26U C56G U57G G67C, the nonsense suppression was not above 0.026.
C64U G85U A87G: the nonsense suppression was not above 0.026.
C1G G65A G88A: the nonsense suppression was not above 0.026.
In the case of C1G U21C A31U C56A G61U C64U C72U G73A, the nonsense suppression was not above 0.026.
Turning to G25C C34A U70A G86U, the nonsense suppression is not above 0.026.
To U63G G73U A74U G78C belongs not above 0.026.
For the variant A23U G67A A89U, the nonsense suppression was not above 0.026.
For A13G U16G C56U, the nonsense suppression is not above 0.026.
